Data published in PubChem BioAssay AID1466 (National Center for Advancing Translational Sciences (NCATS), 2008).
The campaign covered roughly 200,000 compounds. About 10 (0.005%) were called active. The shares of active, inactive and inconclusive entries below differ from those in the screen. The call rests on the fitted dose curve; in most records, active means well fitted inhibition curve with a large enough effect; inconclusive means small, poorly fitted or top-dose-only effect, or effect the other way, or another doubt; inactive means no such curve, though single readings can be large or run the other way. Potencies of inconclusive entries are doubtful fits and often do not repeat.

Molecular target: Lysosomal alpha-glucosidase (Homo sapiens) (UniProt P10253)
Experiment: qHTS Assay for Inhibitors of Human alpha-Glucosidase as a Potential Chaperone Treatment of Pompe Disease;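 on activity change, negative = inhibition: plate controls were uninhibited enzyme wells for no effect and no-enzyme background for full effect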
Conditions: purified human GAA, 4-MU-alpha-glucoside fluorescence; activity change, negative = inhibition: at 76.9 µM (top of the series) unless noted
Method in brief: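 Read-out is 4-methylumbelliferone fluorescence (Ex 365/Em 440 nm) after NaOH/glycine stop at pH 10. Enzyme 4 nM, substrate 400 uM, pH 5.0 citrate buffer, 20 min room temperature; AC50 from Hill-equation concentration-response.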
Potency means the concentration at half of the fitted maximal effect; tags describe the fitted curve by direction and shape.

Q: Which activity change, negative = inhibition does the source give for O=C(CSc1nc(-c2ccco2)cc(C(F)(F)F)n1)N1CCCc2ccccc21 here?
A: The activity change, negative = inhibition was inconclusive: -17.5% [inhibitor].

Q: Which Potency does the source give for C=CCn1c(CSCc2ccccc2)nnc1SCC(=O)NCc1ccccc1 here?
A: The Potency was inconclusive: 0.178 µM [activator, full curve, poor fit].

Q: For CCOC(=O)C(=O)Nc1sc(C(=O)N2CCOCC2)c(C)c1C#N, which activity change, negative = inhibition is on record?
A: Its activity change, negative = inhibition is inconclusive: 15.6% [activator].

Q: CC(C)CC(c1nnnn1C(C)(C)C)N1CCN(C2CCCC2)CC1 (stereo not drawn) was tested. Which Potency did it give?
A: Its Potency is inconclusive: 11.2 µM [inhibitor, single point].

Q: For CS(=O)(=O)N(Cc1ccccc1Cl)c1ccc(C(=O)NCc2cccnc2)cc1, which Potency is on record?
A: Its Potency is inconclusive: 44.7 µM [inhibitor, single point].

Q: COCC(=O)N1CCCC(C(=O)c2ccc(Oc3ccccc3)cc2)C1 (stereo not drawn) was tested. Which activity change, negative = inhibition did it give?
A: Its activity change, negative = inhibition is inconclusive: 14.8% [activator].

Q: O=C(/C=C/c1ccc(Cl)cc1)Nn1c(-c2cccs2)nc2ccccc2c1=O was tested. Which Potency did it give?
A: Its Potency is inconclusive: 56.2 µM [activator, single point].

Q: CCn1c(Cc2ccccc2)nnc1SCC(=O)Nc1ccc2c(c1)OCCO2 was tested. Which Potency did it give?
A: Its Potency is inconclusive: 11.2 µM [inhibitor, partial curve].

Q: With Cc1cc(C)cc(NC(=O)NC(C)C2CCCO2)c1 (stereo not drawn) as the compound, how does the Potency read?
A: Its Potency is inconclusive: 50.1 µM [inhibitor, single point].

Q: How did the Potency turn out when Cn1c2c(c(=O)n(C)c1=O)NC1(N2)C(=O)Nc2ccccc21 (stereo not drawn) was run?
A: Its Potency is inconclusive: 3.16 µM [activator, partial curve, poor fit].

Q: CCc1nnc(NC(=O)Cc2ccc(OCc3c(C)noc3C)cc2)s1 was tested. Which Potency did it give?
A: Its Potency is inconclusive: 1.26 µM [inhibitor, single point].

Q: CCOC(=O)NN1C(=O)c2ccccc2NC1(C)C was tested. Which Potency did it give?
A: The Potency was inconclusive: 35.5 µM [activator, partial curve].

Q: Clc1cncc(Cl)c1NNc1c2ccccc2nc2ccccc12 was tested. Which Potency did it give?
A: The Potency was inconclusive: 25.1 µM [activator, partial curve].

Q: For O=S(=O)(Nc1ccc2c(c1)nc1n2CCN(Cc2ccccc2)C1)c1ccc(F)cc1, which Potency is on record?
A: The Potency was inconclusive: 25.1 µM [inhibitor, partial curve].

Q: How did the activity change, negative = inhibition turn out when CCN1C(=O)C(CC(=O)Nc2ccc(OC)cc2)N(CCc2ccc(F)cc2)C1=S (stereo not drawn) was run?
A: The activity change, negative = inhibition was inconclusive: 1.51% [inhibitor] [at 15.4 µM].

Q: With Cc1cc(N2CC(C)OC(C)C2)nc2ccccc12 (stereo not drawn) as the compound, how does the Potency read?
A: Its Potency is inconclusive: 50.1 µM [activator, single point].

Q: c1ccc(OCCOCCN2CCN(C(c3ccccc3)c3ccccc3)CC2)cc1 was tested. Which Potency did it give?
A: Its Potency is inconclusive: 44.7 µM [inhibitor, single point].

Q: CC(=O)c1c(C)[nH]c(C(=O)COC(=O)CCCOc2ccccc2)c1C was tested. Which activity change, negative = inhibition did it give?
A: Its activity change, negative = inhibition is inconclusive: -17.7% [inhibitor].

Q: With O=C1c2ccccc2-c2ccc(C(=O)N3CCCCC3)cc21 as the compound, how does the Potency read?
A: The Potency was inconclusive: 56.2 µM [inhibitor, single point].

Q: For O=[N+]([O-])c1ccc(N=NN(CCO)CCO)cc1, which Potency is on record?
A: Its Potency is inconclusive: 22.4 µM [inhibitor, partial curve].

Q: How did the Potency turn out when CC(C)c1ccc(CN(C(=O)c2cc3ccccc3oc2=O)C2CCS(=O)(=O)C2)cc1 (stereo not drawn) was run?
A: The Potency was inconclusive: 50.1 µM [inhibitor, partial curve, poor fit].

Q: For CCOC(=O)c1oc2ccc(S(=O)(=O)n3nc(-c4ccc(C)cc4)cc3N)cc2c1C, which Potency is on record?
A: The Potency was inconclusive: 11.2 µM [inhibitor, partial curve].

Q: Which Potency does the source give for Cc1ccc(C2OC34CCCCCC3C(C#N)(C(=N)O4)C2(C#N)C#N)cc1 (stereo not drawn) here?
A: Its Potency is inconclusive: 31.6 µM [activator, partial curve].

Q: Which Potency does the source give for COc1cc(/C=C2\SC(=Nc3c(C)n(C)n(-c4ccccc4)c3=O)NC2=O)ccc1O here?
A: Its Potency is inconclusive: 44.7 µM [inhibitor, single point].

Q: For CCCCN1/C(=C/c2ccc3ccccc3[n+]2CC)Sc2ccccc21, which activity change, negative = inhibition is on record?
A: The activity change, negative = inhibition was inconclusive: 9.5% [activator].

Q: O=C(CCCC(=O)NCc1ccccc1)NCc1ccccc1 was tested. Which Potency did it give?
A: The Potency was inconclusive: 56.2 µM [inhibitor, single point].

Q: CCOC(=O)c1c(C)n(CC(COC(C)=O)OC(C)=O)c2ccc(OC(C)=O)cc12 (stereo not drawn) was tested. Which Potency did it give?
A: The Potency was inconclusive: 12.6 µM [inhibitor, partial curve, poor fit].

Q: Which Potency does the source give for Cn1c2ccccc2c2c(C(=O)N3CCN(C(=O)c4ccco4)CC3)cn(C3CCCCC3)c(=O)c21 here?
A: The Potency was inconclusive: 39.8 µM [activator, single point].

Q: O=C(CN1C(=O)COc2ccccc21)NCCCN1CCc2ccccc2C1 was tested. Which Potency did it give?
A: Its Potency is inconclusive: 1.26 µM [inhibitor, full curve, poor fit].

Q: Which activity change, negative = inhibition does the source give for O=C(CSc1nc(C2CCCCC2)nc2ccccc12)NCc1ccco1 here?
A: Its activity change, negative = inhibition is inconclusive: 11.5% [activator].

Q: How did the Potency turn out when COC(=O)c1ccc2c(=O)n(CCCCCC(=O)O)c(=O)[nH]c2c1 was run?
A: The Potency was inconclusive: 31.6 µM [activator, partial curve].

Q: How did the activity change, negative = inhibition turn out when C=CCSC1=N/C(=C\c2cccnc2)C(=O)N1c1ccc(OC)cc1 was run?
A: Its activity change, negative = inhibition is inconclusive: -20% [inhibitor].

Q: How did the activity change, negative = inhibition turn out when C=CCOc1ccc(CNc2ccc3[nH]c(=O)[nH]c3c2)cc1 was run?
A: Its activity change, negative = inhibition is inconclusive: 16.3% [activator].

Q: With CCOC(=O)c1cc2c(s1)-c1c(C)cccc1OC2 as the compound, how does the Potency read?
A: Its Potency is inconclusive: 35.5 µM [activator, partial curve].

Q: With CCn1c(SCC(=O)c2ccc(O)c(O)c2)nnc1-c1ccccc1OC as the compound, how does the “activity change, negative = inhibition” value read?
A: The value was inactive: -14.6%.

Q: How did the “activity change, negative = inhibition” value turn out when CN=c1scc(-c2ccc([N+](=O)[O-])cc2)n1/N=C/c1ccco1 was run?
A: The value was inactive: -23.8%.

Q: Which “activity change, negative = inhibition” value does the source give for O=c1cc(CN2CCN(c3ccccc3O)CC2)nc2sccn12 here?
A: Its value is inactive: 0.209%.

Q: How did the Potency turn out when Cc1nn(Cc2ccc(Cl)cc2Cl)c(C)c1NC(=O)NC12CC3CC(CC(C3)C1)C2 was run?
A: Its Potency is inconclusive: 44.7 µM [inhibitor, single point].

Q: For COc1ccc(OC)c(NC(=O)COC(=O)/C=C/c2ccc(Cl)cc2)c1, which Potency is on record?
A: The Potency was inconclusive: 3.55 µM [inhibitor, full curve].

Q: With COc1ccc(-c2nnc3ccc(SCC(=O)Nc4nc5ccc(C)cc5s4)nn23)cc1OC as the compound, how does the Potency read?
A: The Potency was inconclusive: 35.5 µM [inhibitor, single point].

Q: COC(=O)c1cc(S(=O)(=O)N2CCOCC2)ccc1Sc1ccccc1N was tested. Which Potency did it give?
A: The Potency was inconclusive: 50.1 µM [inhibitor, single point].

Q: Which Potency does the source give for Cc1onc(COc2ccccc2O)c1Br here?
A: Its Potency is inconclusive: 56.2 µM [inhibitor, single point].

Q: How did the Potency turn out when Oc1ccc2ccccc2c1CNn1cnnc1 was run?
A: The Potency was inconclusive: 35.5 µM [activator, partial curve].

Q: How did the Potency turn out when CCOC(=O)/C(C#N)=C/Nc1cc(OC)ccc1OC was run?
A: Its Potency is inconclusive: 11.2 µM [inhibitor, single point].

Q: Cn1c(SCC(=O)NCc2ccccc2)nnc1-c1ccc(NC(=O)CCc2ccccc2)cc1 was tested. Which Potency did it give?
A: Its Potency is inconclusive: 1.41 µM [inhibitor, full curve, poor fit].

Q: With O=C(CSc1nnc(Cc2ccccc2)n1Cc1ccco1)NC12CC3CC(CC(C3)C1)C2 as the compound, how does the Potency read?
A: The Potency was inconclusive: 17.8 µM [inhibitor, partial curve, poor fit].

Q: Which activity change, negative = inhibition does the source give for CO[C@H]1C=CO[C@@]2(C)Oc3c(C)c(O)c4c(O)c(c5c(nc6cc(C)ccn65)c4c3C2=O)NC(=O)C(C)=CC=C[C@H](C)[C@H](O)[C@@H](C)[C@@H](O)[C@@H](C)[C@H](OC(C)=O)[C@@H]1C here?
A: Its activity change, negative = inhibition is inactive: 3.9% [at 15.4 µM].

Q: With Cc1ccc(S(=O)(=O)N(C)C)cc1NC(=O)c1cccnc1Oc1ccccc1 as the compound, how does the Potency read?
A: The Potency was inconclusive: 35.5 µM [inhibitor, single point].

Q: With Cc1nn(C)c(C)c1N1C(=O)c2cccc3c(Br)ccc(c23)C1=O as the compound, how does the activity change, negative = inhibition read?
A: The activity change, negative = inhibition was inconclusive: 3.68% [activator].

Q: How did the Potency turn out when COc1ccccc1-c1nc(-c2ccccn2)no1 was run?
A: Its Potency is inconclusive: 11.2 µM [activator, single point].

Q: With COc1ccc([N+](=O)[O-])cc1NC(=O)C(C)N1CCN(C(=O)c2ccco2)CC1 (stereo not drawn) as the compound, how does the Potency read?
A: Its Potency is inconclusive: 0.158 µM [activator, full curve, poor fit].

Q: How did the Potency turn out when COC(=O)C1=CN(C)C=C(C(=O)OC)C1c1ccsc1 was run?
A: Its Potency is inconclusive: 35.5 µM [activator, partial curve].

Q: How did the Potency turn out when COC(=O)Nc1ccccc1C(=O)N1CCCCC1 was run?
A: The Potency was inconclusive: 56.2 µM [inhibitor, single point].

Q: CC(C)c1ccc2oc3nc(N)c(C(=O)O)cc3c(=O)c2c1 was tested. Which Potency did it give?
A: Its Potency is inconclusive: 35.5 µM [activator, partial curve].

Q: For Cc1c(N=Cc2cccnc2)c(=O)n(-c2ccccc2)n1C, which “activity change, negative = inhibition” value is on record?
A: Its value is inactive: -3.33%.

Q: For Cc1ccc(S(=O)(=O)NCc2ccc(C(=O)NCCN(Cc3ccccc3)C(C)C)cc2)cc1, which activity change, negative = inhibition is on record?
A: The activity change, negative = inhibition was inconclusive: -15.6% [inhibitor].

Q: Cc1c(N=Cc2ccccn2)c(=O)n(-c2ccccc2)n1C was tested. Which “activity change, negative = inhibition” value did it give?
A: The value was inactive: -5.78%.

Q: With CCCN1C(=O)c2ccccc2NC1c1cc(OC)c(OC)c(OC)c1 (stereo not drawn) as the compound, how does the activity change, negative = inhibition read?
A: Its activity change, negative = inhibition is inconclusive: 20.6% [activator].

Q: With COc1ccc(C(=O)C2CCCN(C3Cc4ccccc4C3)C2)c(OC)c1 (stereo not drawn) as the compound, how does the activity change, negative = inhibition read?
A: Its activity change, negative = inhibition is inconclusive: 20.9% [activator].

Q: For Cn1c(-c2cc3ccc(OC(=O)C(C)(C)C)cc3oc2=O)nc2ccccc21, which Potency is on record?
A: Its Potency is inconclusive: 39.8 µM [activator, partial curve].

Q: For COc1cc(-c2cc(-c3nnco3)c3ccccc3n2)cc(OC)c1OC, which Potency is on record?
A: Its Potency is inconclusive: 22.4 µM [inhibitor, partial curve].

Q: O=C(O)c1ccc(S(=O)(=O)c2ccc3c(c2)C(=O)N(Cc2ccco2)C3=O)cc1 was tested. Which Potency did it give?
A: The Potency was inconclusive: 56.2 µM [inhibitor, single point].

Q: With O=C(Nc1ccccc1-c1nc2ccccc2[nH]1)c1ccc(N2C(=O)CCC2=O)cc1 as the compound, how does the Potency read?
A: The Potency was inconclusive: 31.6 µM [activator, partial curve].
